In publication PMC9911399, “Two distinct binding modes provide the RNA-binding protein RbFox with extraordinary sequence specificity”:
Residue numbers refer to the chain shown, from its start. This is one part of the list.

T1: RBFOX1 RRM (Homo sapiens, UniProt Q9NWB1 109-208)
T1 sequence: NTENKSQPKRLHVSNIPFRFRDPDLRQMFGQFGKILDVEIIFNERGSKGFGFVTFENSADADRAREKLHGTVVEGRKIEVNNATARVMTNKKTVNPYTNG

B1: AGAUGAG (DNA:RNA)
RNA: GGGAGACCGGAAUUCAGAUUGUCCAGAUGAGUUAAAUCCCGUCGUAGCCACCA
DNA 1: CAATCTGAATTCCGGTCTCCC
DNA 2: TGGTGGCTACGACGGGATT
B2: UGAGAAG (DNA:RNA)
RNA: B1 RNA with A25U, U28G, G29A
DNA 1: CAATCTGAATTCCGGTCTCCC
DNA 2: TGGTGGCTACGACGGGATT
B3: GGUCGAA (DNA:RNA)
RNA: B1 RNA with A25G, A27U, U28C, G31A
DNA 1: CAATCTGAATTCCGGTCTCCC
DNA 2: TGGTGGCTACGACGGGATT
B4: GAGGAGA (DNA:RNA)
RNA: GGGAGACCGGAAUUCAGAUUGUCCGAGGAGAUUAAAUCCCGUCGUAGCCACCA
DNA 1: CAATCTGAATTCCGGTCTCCC
DNA 2: TGGTGGCTACGACGGGATT
B5: CCAUGAA (DNA:RNA)
RNA: B1 RNA with A25C, G26C, G31A
DNA 1: CAATCTGAATTCCGGTCTCCC
DNA 2: TGGTGGCTACGACGGGATT
B6: GAGGCUA (DNA:RNA)
RNA: B4 RNA with A29C, G30U
DNA 1: CAATCTGAATTCCGGTCTCCC
DNA 2: TGGTGGCTACGACGGGATT
B7: AACGCAA (DNA:RNA)
RNA: B4 RNA with G25A, G27C, A29C, G30A
DNA 1: CAATCTGAATTCCGGTCTCCC
DNA 2: TGGTGGCTACGACGGGATT
B8: CGGGUAU (DNA:RNA)
RNA: B1 RNA with A25C, A27G, U28G, G29U, G31U
DNA 1: CAATCTGAATTCCGGTCTCCC
DNA 2: TGGTGGCTACGACGGGATT
B9: CAAAACA (DNA:RNA)
RNA: B4 RNA with G25C, G27A, G28A, G30C
DNA 1: CAATCTGAATTCCGGTCTCCC
DNA 2: TGGTGGCTACGACGGGATT
B10: CGACGAU (DNA:RNA)
RNA: B1 RNA with A25C, U28C, G31U
DNA 1: CAATCTGAATTCCGGTCTCCC
DNA 2: TGGTGGCTACGACGGGATT
B11: UAGAAAA (DNA:RNA)
RNA: B4 RNA with G25U, G28A, G30A
DNA 1: CAATCTGAATTCCGGTCTCCC
DNA 2: TGGTGGCTACGACGGGATT
B12: GGCGAUU (DNA:RNA)
RNA: B4 RNA with A26G, G27C, G30U, A31U
DNA 1: CAATCTGAATTCCGGTCTCCC
DNA 2: TGGTGGCTACGACGGGATT
B13: CCAGCGU (DNA:RNA)
RNA: B4 RNA with G25C, A26C, G27A, A29C, A31U
DNA 1: CAATCTGAATTCCGGTCTCCC
DNA 2: TGGTGGCTACGACGGGATT
B14: AGUCCAA (DNA:RNA)
RNA: B1 RNA with A27U, U28C, G29C, G31A
DNA 1: CAATCTGAATTCCGGTCTCCC
DNA 2: TGGTGGCTACGACGGGATT
B15: UGUGCAG (DNA:RNA)
RNA: B1 RNA with A25U, A27U, U28G, G29C
DNA 1: CAATCTGAATTCCGGTCTCCC
DNA 2: TGGTGGCTACGACGGGATT
B16: GUCCUCC (DNA:RNA)
RNA: B4 RNA with A26U, G27C, G28C, A29U, G30C, A31C
DNA 1: CAATCTGAATTCCGGTCTCCC
DNA 2: TGGTGGCTACGACGGGATT
B17: CCGAAUG (DNA:RNA)
RNA: B4 RNA with G25C, A26C, G28A, G30U, A31G
DNA 1: CAATCTGAATTCCGGTCTCCC
DNA 2: TGGTGGCTACGACGGGATT
B18: UGCCCAG (DNA:RNA)
RNA: B1 RNA with A25U, A27C, U28C, G29C
DNA 1: CAATCTGAATTCCGGTCTCCC
DNA 2: TGGTGGCTACGACGGGATT
B19: CAGCGAA (DNA:RNA)
RNA: B4 RNA with G25C, G28C, A29G, G30A
DNA 1: CAATCTGAATTCCGGTCTCCC
DNA 2: TGGTGGCTACGACGGGATT
B20: UUUUACG (DNA:RNA)
RNA: B1 RNA with A25U, G26U, A27U, G29A, A30C
DNA 1: CAATCTGAATTCCGGTCTCCC
DNA 2: TGGTGGCTACGACGGGATT
B21: ACGGGGC (DNA:RNA)
RNA: B4 RNA with G25A, A26C, A29G, A31C
DNA 1: CAATCTGAATTCCGGTCTCCC
DNA 2: TGGTGGCTACGACGGGATT
B22: CUGUAAA (DNA:RNA)
RNA: B4 RNA with G25C, A26U, G28U, G30A
DNA 1: CAATCTGAATTCCGGTCTCCC
DNA 2: TGGTGGCTACGACGGGATT
B23: CUGCGAA (DNA:RNA)
RNA: B1 RNA with A25C, G26U, A27G, U28C, G31A
DNA 1: CAATCTGAATTCCGGTCTCCC
DNA 2: TGGTGGCTACGACGGGATT
B24: CACGCUC (DNA:RNA)
RNA: B4 RNA with G25C, G27C, A29C, G30U, A31C
DNA 1: CAATCTGAATTCCGGTCTCCC
DNA 2: TGGTGGCTACGACGGGATT
B25: ACUCUUC (DNA:RNA)
RNA: B1 RNA with G26C, A27U, U28C, G29U, A30U, G31C
DNA 1: CAATCTGAATTCCGGTCTCCC
DNA 2: TGGTGGCTACGACGGGATT
B26: UUGAAGC (DNA:RNA)
RNA: B4 RNA with G25U, A26U, G28A, A31C
DNA 1: CAATCTGAATTCCGGTCTCCC
DNA 2: TGGTGGCTACGACGGGATT
B27: CGAGGAG (DNA:RNA)
RNA: B1 RNA with A25C, U28G
DNA 1: CAATCTGAATTCCGGTCTCCC
DNA 2: TGGTGGCTACGACGGGATT
B28: AAUUGCU (DNA:RNA)
RNA: B1 RNA with G26A, A27U, A30C, G31U
DNA 1: CAATCTGAATTCCGGTCTCCC
DNA 2: TGGTGGCTACGACGGGATT
B29: AUCCUCU (DNA:RNA)
RNA: B1 RNA with G26U, A27C, U28C, G29U, A30C, G31U
DNA 1: CAATCTGAATTCCGGTCTCCC
DNA 2: TGGTGGCTACGACGGGATT
B30: ACUCUUG (DNA:RNA)
RNA: B1 RNA with G26C, A27U, U28C, G29U, A30U
DNA 1: CAATCTGAATTCCGGTCTCCC
DNA 2: TGGTGGCTACGACGGGATT
B31: ACGCUGA (DNA:RNA)
RNA: B4 RNA with G25A, A26C, G28C, A29U
DNA 1: CAATCTGAATTCCGGTCTCCC
DNA 2: TGGTGGCTACGACGGGATT

molecular target: T1, RBFOX1 RRM; assay: EMSA; HiTS-Eq, 1 nM pool, 10 min; buffer printed only for the single-RNA assays: 10 mM Tris pH 7.5, 150 mM NaCl, 3.4 mM EDTA, 0.001% NP-40, 30 C; settings: tags: His6 N-terminal (pET28a); label: 5' 32P
In short: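 Purified RbFox RRM (wild type or mutant) was equilibrated for 10 min in 50 µL with 1 nM of a 5′-radiolabelled pool of RNA with 7 randomized nucleotides, its flanks annealed to DNA oligonucleotides, across increasing protein concentrations. Free RNA was separated by 8% native PAGE, excised, reverse-transcribed, PCR-barcoded and sequenced on an Illumina HiSeq 2500. Relative association constants came from read-count changes of each variant against the control reaction, normalised to the cognate motif.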

Binder | binding signal
B1 | 0.0142 KA relative to UGCAUGU
B2 | 0.0158 KA relative to UGCAUGU
B3 | 0.00851 KA relative to UGCAUGU
B4 | 0.0102 KA relative to UGCAUGU
B5 | 0.00298 KA relative to UGCAUGU
B6 | 0.0178 KA relative to UGCAUGU
B7 | 0.00455 KA relative to UGCAUGU
B8 | 0.0264 KA relative to UGCAUGU
B9 | 0.00134 KA relative to UGCAUGU
B10 | 0.011 KA relative to UGCAUGU
B11 | 0.00205 KA relative to UGCAUGU
B12 | 0.0121 KA relative to UGCAUGU
B13 | 0.00657 KA relative to UGCAUGU
B14 | 0.00171 KA relative to UGCAUGU
B15 | 0.0216 KA relative to UGCAUGU
B16 | 0.00969 KA relative to UGCAUGU

Binder | binding signal
B17 | 0.0174 KA relative to UGCAUGU
B18 | 0.0164 KA relative to UGCAUGU
B19 | 0.00745 KA relative to UGCAUGU
B20 | 0.0168 KA relative to UGCAUGU
B21 | 0.0165 KA relative to UGCAUGU
B22 | 0.00865 KA relative to UGCAUGU
B23 | 0.0155 KA relative to UGCAUGU
B24 | 0.00564 KA relative to UGCAUGU
B25 | 0.00543 KA relative to UGCAUGU
B26 | 0.0163 KA relative to UGCAUGU
B27 | 0.0107 KA relative to UGCAUGU
B28 | 0.00776 KA relative to UGCAUGU
B29 | 0.00303 KA relative to UGCAUGU
B30 | 0.0078 KA relative to UGCAUGU
B31 | 0.0109 KA relative to UGCAUGU
